Source: US5696084A, “Amino-lipopetide antifungal agents” (Abbott Laboratories, priority 1996, dated 1997)
≈ marks a conversion by molar mass, not a printed value. Not every detail of the peptide structures is certain; ends, links or a residue may be inferred. Numbered stars: 1 amine (or outer) side, 2 acyl side, 3 side chain; on linkers, the order of the positions; unused ones are H or OH. Bridge positions count the residues as written; N and C are the ends. Square brackets hold non-standard residues; d marks the D form. Peptide text beside a SMILES is read from it. * marks the point of attachment. pTerphenylCO(4''-OnC5H11) = CCCCCOc1ccc(-c2ccc(-c3ccc(C(=O)*)cc3)cc2)cc1; X26 = NC(Cc1cnc[nH]1)C(=O)N[C@H]1C[C@@H](C(=O)[*:2])N([*:1])C1; X3 = C[N+](C)(C)CC(=O)N[C@H]1C[C@@H](C(=O)[*:2])N([*:1])C1; X15 = NCCCC(N)C(=O)N[C@H]1C[C@@H](C(=O)[*:2])N([*:1])C1; X21 = O=C(O)CCC(=O)N[C@H]1C[C@@H](C(=O)[*:2])N([*:1])C1; X25 = CN(C)CCNC(=O)N[C@H]1C[C@@H](C(=O)[*:2])N([*:1])C1; Pro(cis-4-guanidino) = NC(N)=N[C@@H]1CN[C@H](C(=O)O)C1; X14 = NC(CO)C(=O)N[C@H]1C[C@@H](C(=O)[*:2])N([*:1])C1; X29 = CN(C)NC(=O)N[C@H]1C[C@@H](C(=O)[*:2])N([*:1])C1; X28 = C=CCOC(=O)N[C@H]1C[C@@H](C(=O)[*:2])N([*:1])C1; X5 = CN(C)CC(=O)N[C@H]1C[C@@H](C(=O)[*:2])N([*:1])C1; X11 = CNC(=O)N[C@H]1C[C@@H](C(=O)[*:2])N([*:1])C1; X19 = NCC(=O)N[C@H]1C[C@@H](C(=O)[*:2])N([*:1])C1; X20 = NC(CO)CN[C@H]1C[C@@H](C(=O)[*:2])N([*:1])C1; hTyr = N[C@@H](CCc1ccc(O)cc1)C(=O)O; Hyp = O=C(O)[C@@H]1C[C@@H](O)CN1; Orn = NCCC[C@H](N)C(=O)O

Legend:
[1] = test system: Candida albicans ATCC 38247; assay: MIC by broth microdilution, Candida albicans ATCC 38247; assay type: cell-based; details: Yeast Nitrogen Broth with glucose, 24 to 48 hr, growth inhibition read visually
[2] = test system: Candida albicans ATCC 10231; assay: MIC by broth microdilution, Candida albicans ATCC 10231; assay type: cell-based; details: Yeast Nitrogen Broth with glucose, 24 to 48 hr, growth inhibition read visually

Row | Compound | MIC Candida albicans ATCC 38247 [1] [µg/mL] | MIC Candida albicans ATCC 10231 [2] [µg/mL]
1 | C=CCOC(=O)N[C@H]1C[C@H]2C(=O)NCCC[C@H](NC(=O)c3ccc(-c4ccc(-c5ccc(OCCCCC)cc5)cc4)cc3)C(=O)N[C@@H]([C@@H](C)O)C(=O)N3C[C@H](O)C[C@H]3C(=O)N[C@@H](CCc3ccc(O)cc3)C(=O)N[C@@H]([C@@H](C)O)C(=O)N2C1 [Example 40] ({pTerphenylCO(4''-OnC5H11)}-[Orn]T[Hyp][hTyr]T[X28]; lactam 1-C) | > 100 | 3.12 (≈ 2.72 µM)
2 | CCCCCOc1ccc(-c2ccc(-c3ccc(C(=O)N[C@H]4CCCNC(=O)[C@@H]5C[C@H](NC(=O)NC)CN5C(=O)[C@H]([C@@H](C)O)NC(=O)[C@H](CCc5ccc(O)cc5)NC(=O)[C@@H]5C[C@@H](O)CN5C(=O)[C@H]([C@@H](C)O)NC4=O)cc3)cc2)cc1 [Example 41] ({pTerphenylCO(4''-OnC5H11)}-[Orn]T[Hyp][hTyr]T[X11]; lactam 1-C) | 0.78 (≈ 0.697 µM) | 0.39 (≈ 0.349 µM)
3 | CCCCCOc1ccc(-c2ccc(-c3ccc(C(=O)N[C@H]4CCCNC(=O)[C@@H]5C[C@H](NC(=O)NN(C)C)CN5C(=O)[C@H]([C@@H](C)O)NC(=O)[C@H](CCc5ccc(O)cc5)NC(=O)[C@@H]5C[C@@H](O)CN5C(=O)[C@H]([C@@H](C)O)NC4=O)cc3)cc2)cc1 [Example 42] ({pTerphenylCO(4''-OnC5H11)}-[Orn]T[Hyp][hTyr]T[X29]; lactam 1-C) | 6.25 (≈ 5.45 µM) | 1.56 (≈ 1.36 µM)
4 | CCCCCOc1ccc(-c2ccc(-c3ccc(C(=O)N[C@H]4CCCNC(=O)[C@@H]5C[C@H](NC(=O)NCCN(C)C)CN5C(=O)[C@H]([C@@H](C)O)NC(=O)[C@H](CCc5ccc(O)cc5)NC(=O)[C@@H]5C[C@@H](O)CN5C(=O)[C@H]([C@@H](C)O)NC4=O)cc3)cc2)cc1 [Example 43] ({pTerphenylCO(4''-OnC5H11)}-[Orn]T[Hyp][hTyr]T[X25]; lactam 1-C) | 1.56 (≈ 1.33 µM) | 0.78 (≈ 0.664 µM)
5 | CCCCCOc1ccc(-c2ccc(-c3ccc(C(=O)N[C@H]4CCCNC(=O)[C@@H]5C[C@H](NC(=O)C(N)Cc6cnc[nH]6)CN5C(=O)[C@H]([C@@H](C)O)NC(=O)[C@H](CCc5ccc(O)cc5)NC(=O)[C@@H]5C[C@@H](O)CN5C(=O)[C@H]([C@@H](C)O)NC4=O)cc3)cc2)cc1 (some centres unmarked) [Example 44] ({pTerphenylCO(4''-OnC5H11)}-[Orn]T[Hyp][hTyr]T[X26]; lactam 1-C) | 0.78 (≈ 0.651 µM) | 0.39 (≈ 0.325 µM)
6 | CCCCCOc1ccc(-c2ccc(-c3ccc(C(=O)N[C@H]4CCCNC(=O)[C@@H]5C[C@H](NC(=O)C(N)CCCN)CN5C(=O)[C@H]([C@@H](C)O)NC(=O)[C@H](CCc5ccc(O)cc5)NC(=O)[C@@H]5C[C@@H](O)CN5C(=O)[C@H]([C@@H](C)O)NC4=O)cc3)cc2)cc1 (some centres unmarked) [Example 45] ({pTerphenylCO(4''-OnC5H11)}-[Orn]T[Hyp][hTyr]T[X15]; lactam 1-C) | 1.56 (≈ 1.33 µM) | 0.78 (≈ 0.664 µM)
7 | CCCCCOc1ccc(-c2ccc(-c3ccc(C(=O)N[C@H]4CCCNC(=O)[C@@H]5C[C@H](NC(=O)CCC(=O)O)CN5C(=O)[C@H]([C@@H](C)O)NC(=O)[C@H](CCc5ccc(O)cc5)NC(=O)[C@@H]5C[C@@H](O)CN5C(=O)[C@H]([C@@H](C)O)NC4=O)cc3)cc2)cc1 [Example 46] ({pTerphenylCO(4''-OnC5H11)}-[Orn]T[Hyp][hTyr]T[X21]; lactam 1-C) | 3.12 (≈ 2.69 µM) | 0.78 (≈ 0.672 µM)
8 | CCCCCOc1ccc(-c2ccc(-c3ccc(C(=O)N[C@H]4CCCNC(=O)[C@@H]5C[C@H](NCC(N)CO)CN5C(=O)[C@H]([C@@H](C)O)NC(=O)[C@H](CCc5ccc(O)cc5)NC(=O)[C@@H]5C[C@@H](O)CN5C(=O)[C@H]([C@@H](C)O)NC4=O)cc3)cc2)cc1 (some centres unmarked) [Example 47] ({pTerphenylCO(4''-OnC5H11)}-[Orn]T[Hyp][hTyr]T[X20]; lactam 1-C) | 0.78 (≈ 0.688 µM) | 0.39 (≈ 0.344 µM)
9 | CCCCCOc1ccc(-c2ccc(-c3ccc(C(=O)N[C@H]4CCCNC(=O)[C@@H]5C[C@H](NC(=O)C(N)CO)CN5C(=O)[C@H]([C@@H](C)O)NC(=O)[C@H](CCc5ccc(O)cc5)NC(=O)[C@@H]5C[C@@H](O)CN5C(=O)[C@H]([C@@H](C)O)NC4=O)cc3)cc2)cc1 (some centres unmarked) [Example 48] ({pTerphenylCO(4''-OnC5H11)}-[Orn]T[Hyp][hTyr]T[X14]; lactam 1-C) | 1.56 (≈ 1.36 µM) | 0.78 (≈ 0.679 µM)
10 | CCCCCOc1ccc(-c2ccc(-c3ccc(C(=O)N[C@H]4CCCNC(=O)[C@@H]5C[C@H](NC(=N)N)CN5C(=O)[C@H]([C@@H](C)O)NC(=O)[C@H](CCc5ccc(O)cc5)NC(=O)[C@@H]5C[C@@H](O)CN5C(=O)[C@H]([C@@H](C)O)NC4=O)cc3)cc2)cc1 [Example 49] ({pTerphenylCO(4''-OnC5H11)}-[Orn]T[Hyp][hTyr]T[Pro(cis-4-guanidino)]; lactam 1-C) | 0.39 (≈ 0.353 µM) | 0.2 (≈ 0.181 µM)
11 | CCCCCOc1ccc(-c2ccc(-c3ccc(C(=O)N[C@H]4CCCNC(=O)[C@@H]5C[C@H](NC(=O)CN)CN5C(=O)[C@H]([C@@H](C)O)NC(=O)[C@H](CCc5ccc(O)cc5)NC(=O)[C@@H]5C[C@@H](O)CN5C(=O)[C@H]([C@@H](C)O)NC4=O)cc3)cc2)cc1 [Example 50] ({pTerphenylCO(4''-OnC5H11)}-[Orn]T[Hyp][hTyr]T[X19]; lactam 1-C) | 0.78 (≈ 0.697 µM) | 0.39 (≈ 0.349 µM)
12 | CCCCCOc1ccc(-c2ccc(-c3ccc(C(=O)N[C@H]4CCCNC(=O)[C@@H]5C[C@H](NC(=O)CN(C)C)CN5C(=O)[C@H]([C@@H](C)O)NC(=O)[C@H](CCc5ccc(O)cc5)NC(=O)[C@@H]5C[C@@H](O)CN5C(=O)[C@H]([C@@H](C)O)NC4=O)cc3)cc2)cc1 [Example 51] ({pTerphenylCO(4''-OnC5H11)}-[Orn]T[Hyp][hTyr]T[X5]; lactam 1-C) | 0.78 (≈ 0.68 µM) | 0.39 (≈ 0.34 µM)
13 | CCCCCOc1ccc(-c2ccc(-c3ccc(C(=O)N[C@H]4CCCNC(=O)[C@@H]5C[C@H](NC(=O)C[N+](C)(C)C)CN5C(=O)[C@H]([C@@H](C)O)NC(=O)[C@H](CCc5ccc(O)cc5)NC(=O)[C@@H]5C[C@@H](O)CN5C(=O)[C@H]([C@@H](C)O)NC4=O)cc3)cc2)cc1 [Example 52] ({pTerphenylCO(4''-OnC5H11)}-[Orn]T[Hyp][hTyr]T[X3]; lactam 1-C) | 6.25 | 1.56
